# From the supplement of paper PMC12340641
# In all, about 1,000 compounds were measured (“relative growth in counter assay (no AraC = 100%, AraC + DMSO = 0%)”: median about -1.1, highest 2% from about 20 on). The list shows a part of the results.
# Test system: HEK293FT dCK*-only
# Experiment: relative growth in counter assay (no AraC = 100%, AraC + DMSO = 0%); higher = more growth rescue independent of IKZF1
# Conditions: compound concentration: 5 uM; AraC concentration: 0.3 uM; overnight pretreatment + 4 days AraC
# Procedure: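 Growth recovery screen of the molecular-glue-like (Specs) library. HEK293FT cells expressing a dCK*-IKZF1 fusion (primary) or dCK* alone (counter) were pretreated overnight with compound at 5 uM, then given 0.3 uM AraC for 4 days. Hoechst nuclei were counted by imaging. Primary: normalised to pomalidomide (100%) and DMSO (0%), mean of 2 replicates. Counter: normalised to no-AraC (100%) and AraC+DMSO (0%), single replicate.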
row,SMILES,relative growth in counter assay [%]
1,CC(=O)N1CCC(c2cccc(Nc3nc(C)cs3)n2)CC1,-1.17
2,O=C(/C=C/c1ccco1)N1CCCC1c1csc(Nc2ccccn2)n1 (stereo not drawn),-4.52
3,CC(=O)N1CCCC1c1cccc(Nc2nc(C)cs2)n1 (stereo not drawn),-5.77
4,Cc1csc(Nc2cccc(C3CCN(C(=O)CN)CC3)n2)n1,-14.7
5,Cn1c(SCC(=O)Nc2ccccn2)nc2ccccc21,0.85
6,Cc1cnc(Nc2cccc(C3CCN(C(=O)c4cccc5cccnc45)CC3)n2)s1,2.54
7,CC(=O)Oc1cccc(N2C(=O)c3ccc(Oc4ccc(N)cc4)cc3C2=O)c1,-2.02
8,CNC(=O)[C@@H]1CCCC[C@@H]1C(=O)N1CCC(c2cccc(Nc3ncc(C)s3)n2)CC1,-23.8
9,Cc1nn(C)c(C)c1/C=C/C(=O)N1CCC(c2cc3ccccc3c(Nc3nccs3)n2)CC1,13.6
10,Cc1ccnc(NS(=O)(=O)c2ccc([N+](=O)[O-])cc2)c1,14.4
11,Cc1cc(C)c(C(=O)Nc2ccc(S(=O)(=O)Nc3ccccn3)cc2)c(C)c1,-4.58
12,Cc1cnc(NC(=O)CN2CCC(c3cccc(Nc4nc(C)c(C)s4)n3)CC2)s1,24.2
13,CC(=O)Nc1ccc(Oc2ccc3c(c2)C(=O)N(c2ccccc2C)C3=O)cc1,1.06
14,COC(=O)CCC(=O)Nc1ccc(S(=O)(=O)Nc2nc(C)cc(C)n2)cc1,0.66
15,CN[C@@H]1CCC[C@@H](n2cnc3c(N)nc(N)nc32)[C@@H]1O,8.12
16,Cc1ccnc(NS(=O)(=O)c2ccc(N3C(=O)c4ccc(C(=O)O)cc4C3=O)cc2)n1,6.09
17,Cc1ccnc(NS(=O)(=O)c2ccc(NC(=O)CC34CC5CC(CC(C5)C3)C4)cc2)n1,-2.13
18,O=C1c2ccc(Oc3ccc(NC(=O)C(F)(F)F)cc3)cc2C(=O)N1c1ccc(O)cc1,-3.44
19,Cc1cc(NS(=O)(=O)c2ccc(NC(=O)COc3ccc(C)c(C)c3)cc2)nc(C)n1,-19.5
20,Cc1ccnc(NS(=O)(=O)c2ccc(N3C(=O)C4C5C=CC(C5)C4C3=O)cc2)n1 (stereo not drawn),-2.2
21,Nc1cccc(Oc2ccc3c(c2)C(=O)N(CCO)C3=O)c1,-0.05

row,SMILES,relative growth in counter assay [%]
1,Cc1ccnc(NS(=O)(=O)c2ccc(NC(=O)C(C)(C)C)cc2)n1,6.32
2,Cc1cc(C)nc(NS(=O)(=O)c2ccc(NC(=O)C(C)Oc3ccccc3)cc2)n1 (stereo not drawn),-1.9
3,O=C(O)CN1CCN(c2cccc3c2C(=O)N(C2CCC(=O)NC2=O)C3=O)CC1 (stereo not drawn),4.29
4,O=C(CO)N1CCC(c2cccc(Nc3ncc(-c4ccccc4)s3)n2)CC1,-21.4
5,CC(=O)Nc1ccc(S(=O)(=O)Nc2ccc(S(=O)(=O)Nc3ncccn3)cc2)cc1,-0.11
6,O=C(CCc1c[nH]c2ccccc12)N1CCCC1c1cccc(Nc2nccs2)n1 (stereo not drawn),-6.78
7,Cc1csc(Nc2cccc(C3CN(C(=O)CCC4CCCC4)CCO3)n2)n1 (stereo not drawn),32.3
8,Cc1cc(C)nc(NS(=O)(=O)c2ccc(NC(=O)CCC(=O)O)cc2)n1,-5.29
9,O=C(C1CCCCN1)N1CCC(c2cccc(Nc3ncc(-c4ccccc4)s3)n2)CC1 (stereo not drawn),-3.42
10,O=C(Nc1ccc(S(=O)(=O)Nc2ccccn2)cc1)c1ccco1,4.23
11,Cc1csc(Nc2cccc(C3CCCN3C(=O)c3n[nH]c4c3CCCCCC4)n2)n1 (stereo not drawn),-0.03
12,O=C(c1cccc2ncccc12)N1CCOC(c2cccc(Nc3nccs3)n2)C1 (stereo not drawn),-3.73
13,Cc1cc(NS(=O)(=O)c2ccc(NC(=O)CCc3ccccc3)cc2)nc(C)n1,0.94
14,Cc1cccc(OCC(=O)Nc2ccc(S(=O)(=O)Nc3nc(C)cc(C)n3)cc2)c1,-12
15,O=C(COc1ccccc1)Nc1ccc(S(=O)(=O)Nc2ccccn2)cc1,2.12
16,COc1cc(NS(=O)(=O)c2ccc(N)cc2)nc(OC)n1,-1.08
17,CCN(CC)c1ccc2cc(C(=O)Nc3ccc(S(=O)(=O)Nc4nc(C)cc(C)n4)cc3)c(=O)oc2c1,-5.02
18,CCN1CC(C(=O)N2CCC(c3cccc(Nc4ncc(C)s4)n3)CC2)CC1=O (stereo not drawn),-1.29
19,CC(=O)Nc1ccc(S(=O)(=O)Nc2nccc(C)n2)cc1,1.1
20,Cc1ccnc(NS(=O)(=O)c2ccc(NC(=O)Cc3cccs3)cc2)n1,-1.12
21,Cc1nc(Nc2cccc(C3CCCN3C(=O)CCCc3ccc(F)cc3)n2)sc1C (stereo not drawn),3.86

row,SMILES,relative growth in counter assay [%]
1,O=C(Cc1ccc(F)cc1)N1CCC(c2cccc(Nc3nccs3)n2)CC1,-25.1
2,CC(C)C(=O)Nc1ccc(S(=O)(=O)Nc2ccccn2)cc1,-2.72
3,COc1cc(NS(=O)(=O)c2ccc(NC(=O)c3ccc(Br)cc3)cc2)nc(OC)n1,8.28
4,Cc1csc(Nc2cccc(C3CN(CC(=O)NCc4ccccn4)CCO3)n2)n1 (stereo not drawn),5.68
5,Cc1cc(C)nc(NS(=O)(=O)c2ccc(NC(=O)/C=C/c3cccs3)cc2)n1,3.95
6,Cc1cnc(Nc2cccc(CC3CCN(CC(=O)N(C(C)C)C4CCCCC4)CC3)n2)s1,-3.05
7,CCOc1cccc(C(=O)Nc2ccc(S(=O)(=O)Nc3nc(C)cc(C)n3)cc2)c1,-0.87
8,O=C(CSc1nc2cc(Cl)ccc2[nH]1)Nc1ccc(Br)cn1,-6.16
9,Cc1ccccc1OCC(=O)Nc1ccc(S(=O)(=O)Nc2ccccn2)cc1,1
10,Cc1ccc(C)c(OCCCC(=O)Nc2ccc(S(=O)(=O)Nc3ncccn3)cc2)c1,-2.63
11,CCOc1ccc(C(=O)Nc2ccc(S(=O)(=O)Nc3ncccn3)cc2)cc1OCC,6.76
12,CC1=NN(CCC(=O)N2CCOC(c3cccc(Nc4nc(C)c(C)s4)n3)C2)CC1 (stereo not drawn),15.8
13,NC(=O)CN1CCC(c2csc(Nc3ccc(F)cn3)n2)CC1,5.45
14,CC(=O)Nc1ccc(S(=O)(=O)Nc2ncccn2)cc1,-1.98
15,Cc1ccnc(NS(=O)(=O)c2ccc(NC(=O)c3ccc(C)c(C)c3)cc2)n1,-1.31
16,O=C(O)COCCOCCNc1cc2c(cc1F)C(=O)N(C1CCC(=O)NC1=O)C2=O (stereo not drawn),0.82
17,Cc1cnc(Nc2cc(C3CCN(C(=O)C4CCCCN4C(=O)OC(C)(C)C)CC3)ccn2)s1 (stereo not drawn),7.97
18,O=C(CC(c1ccccc1)c1ccccc1)Nc1ccc(S(=O)(=O)Nc2ncccn2)cc1,-1.59
19,Cc1cnc(Nc2cccc(C3CN(C(=O)CCc4cccc(Cl)c4)CCO3)n2)s1 (stereo not drawn),-5.59
20,COc1ccc(Cl)cc1NC(=O)CSc1nnc2c(n1)[nH]c1ccc(C)cc12,5.28
21,Cc1nc(C)c(C(=O)N2CCC(c3cccc(Nc4ncc(C)s4)n3)CC2)o1,-23.1
